According to the BET-seq Pho4 binding data (Le et al. 2018):
Some of the results follow. Values were computed here from the reads of four pooled replicates and scatter widely.

Molecular target: T1, Pho4 (S. cerevisiae) (UniProt P07270)
T1 sequence: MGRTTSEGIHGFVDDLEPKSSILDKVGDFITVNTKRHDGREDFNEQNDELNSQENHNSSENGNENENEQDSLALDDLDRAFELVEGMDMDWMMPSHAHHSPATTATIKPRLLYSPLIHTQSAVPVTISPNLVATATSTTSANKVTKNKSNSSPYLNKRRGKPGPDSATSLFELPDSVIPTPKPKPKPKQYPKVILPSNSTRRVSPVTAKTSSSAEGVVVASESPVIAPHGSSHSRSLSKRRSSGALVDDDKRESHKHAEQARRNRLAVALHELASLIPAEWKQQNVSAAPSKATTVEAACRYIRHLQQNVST
Experiment: relative binding free energy (BET-seq); higher = weaker binding
Conditions: reference: library average

Row | Sequence | relative binding free energy [kcal/mol]
1 | TTCTTCACGTGTGGGT | 0.26
2 | GTGTACACGTGAGGTA | 0.29
3 | CGTGGCACGTGGAAGT | 0.01
4 | TGGGGCACGTGGTACC | -0.16
5 | GTTTTCACGTGGTAGA | 0.28
6 | CTGTGCACGTGATGGG | 0.08
7 | ATTGGCACGTGGGAGG | -0.14
8 | ATGTCCACGTGTAAGT | 0.18
9 | AAAATCACGTGGGCGG | 0.06
10 | AAGAGCACGTGCTTGG | -0.07
11 | GAGATCACGTGGGTCT | 0.24
12 | TATGGCACGTGGGGCC | -0.19
13 | GTAGGCACGTGATTGT | 0.06
14 | TAAGGCACGTGTTCGT | -0.1
15 | TTGATCACGTGGTCGT | 0.11
16 | GGCTGCACGTGGAGAG | 0.03
17 | TTCGACACGTGATGTT | 0.15
18 | AGCGGCACGTGGGATG | -0.21
19 | GTCGGCACGTGAAAGG | 0.19
20 | CTAGTCACGTGCGGGG | 0.06
21 | AACTTCACGTGAGTTT | 0.32
22 | GCGTGCACGTGGGGTA | -0.24
23 | AGGTTCACGTGGAGGA | 0.27
24 | TTTGACACGTGTGCTA | 0
25 | ATGTGCACGTGGTAGT | -0.1

Row | Sequence | relative binding free energy [kcal/mol]
26 | CGGGTCACGTGATGGG | 0.21
27 | TGTGGCACGTGATATA | -0.02
28 | TGTTGCACGTGTCTGA | 0.05
29 | ATTGACACGTGGTTCA | 0.06
30 | GTTGACACGTGGATGC | 0.12
31 | TTCGACACGTGTATGT | 0.09
32 | TATGGCACGTGGAGGG | -0.06
33 | AAGGCCACGTGTTGTT | -0.14
34 | AGTTGCACGTGTGTTG | -0.01
35 | TATGGCACGTGTGAAG | -0.07
36 | TGGATCACGTGGGCAT | 0.03
37 | TGGCTCACGTGGTTCT | 0.23
38 | ATGTTCACGTGACTAT | 0.24
39 | TTAGGCACGTGGCTTT | -0.14
40 | ATAGTCACGTGTTATC | 0.18
41 | GCGCGCACGTGGTTGG | -0.15
42 | TGTCGCACGTGATTGC | 0.08
43 | GAGAGCACGTGGGTGA | -0.17
44 | CATATCACGTGTAGGT | 0.13
45 | ATAAGCACGTGGTGTG | -0.25
46 | GTCGTCACGTGGTTAT | 0.06
47 | TCCTTCACGTGTTGGA | 0.36
48 | AAGTTCACGTGCGTGA | 0.03
49 | TGGGGCACGTGAAGGT | 0.15
50 | TTCAGCACGTGGGACT | 0.04

Row | Sequence | relative binding free energy [kcal/mol]
51 | TTGCGCACGTGGGAAT | -0.26
52 | TGGATCACGTGTTCAG | 0.19
53 | ATATACACGTGGCGGG | -0.12
54 | AGCTTCACGTGCGTGT | 0.07
55 | AGTGGCACGTGGGTGC | -0.2
56 | AGTGCCACGTGGAATG | -0.11
57 | TAGTCCACGTGTTTTT | 0.03
58 | AAAGCCACGTGTTGGG | -0.15
59 | AGGTTCACGTGTTCGG | 0.31
60 | AGTTACACGTGGCGTG | 0.01
61 | TTAACCACGTGTTTTG | -0.1
62 | GTTTGCACGTGAGATT | 0.21
63 | GCCGACACGTGGTGGG | 0.05
64 | GTTCTCACGTGATTAG | 0.3
65 | GGTAGCACGTGTATCG | -0.09
66 | AGAGTCACGTGGTTGT | 0.11
67 | TGGGTCACGTGTAGTG | 0.29
68 | GCCGGCACGTGTGCGG | -0.11
69 | AAGGTCACGTGATGTG | 0.16
70 | GGTAGCACGTGAGTGG | 0.22
71 | CCTGGCACGTGGGGTT | -0.23
72 | TGTGGCACGTGGCTTC | 0.07
73 | AGGATCACGTGTTATT | 0.05
74 | GGTTTCACGTGCGTGG | 0.3
75 | CTGCTCACGTGGGGTT | 0.04

Row | Sequence | relative binding free energy [kcal/mol]
76 | GTGTTCACGTGTGCTA | 0.33
77 | AGGTGCACGTGAGGCG | 0.16
78 | AGTAGCACGTGCATTT | 0
79 | TGGTACACGTGAGTAG | 0.36
80 | ATAGTCACGTGTTTCG | 0.15
81 | TAATGCACGTGGAGCT | 0.01
82 | TTAAACACGTGTAAAT | 0.24
83 | TTGATCACGTGTAGAG | 0.26
84 | AAATACACGTGATGGG | 0.14
85 | TACTTCACGTGTGCGG | 0.14
86 | TTGGACACGTGGGAGT | -0.16
87 | TTGGTCACGTGGTGAC | 0.12
88 | CGGGGCACGTGACTGT | 0.07
89 | TGACGCACGTGCGGTG | -0.22
90 | GTAGGCACGTGGGCAT | -0.11
91 | GGAAACACGTGAGGTG | 0.26
92 | CTATTCACGTGGTTTA | 0.17
93 | ATTTTCACGTGGACTT | 0.24
94 | CGGGGCACGTGTGCCG | -0.08
95 | CTTAGCACGTGGGTTG | -0.21
96 | GTCAACACGTGCGTGG | 0.06
97 | TGCTGCACGTGGTTGG | -0.04
98 | TGTTTCACGTGGAATG | 0.26
99 | ATGTACACGTGGTTGA | 0.13
100 | CAGGACACGTGGTATG | -0.13

Row | Sequence | relative binding free energy [kcal/mol]
101 | AGGATCACGTGTCGTT | 0.11
102 | CAGAACACGTGGGTGT | -0.06
103 | CGGTGCACGTGATATG | 0.01
104 | GATGGCACGTGAGATA | 0.14
105 | TGCTCCACGTGGGTGG | -0.14
106 | GTAGACACGTGAGGTC | 0.35
107 | TGTGTCACGTGGTTGC | 0.01
108 | GCAAACACGTGTGGGT | 0.13
109 | TATGGCACGTGTGGAG | -0.09
110 | TGGGACACGTGGCATA | -0.05
111 | GGTTTCACGTGAGTTG | 0.41
112 | CGGTGCACGTGACGGT | -0.03
113 | CGGTTCACGTGAGGGT | 0.52
114 | CTGTGCACGTGCGTGT | -0.04
115 | AGGTTCACGTGTGTCT | 0.39
116 | CGGGTCACGTGATTAA | 0.43
117 | AGTGGCACGTGTAGGA | -0.13
118 | GGAGTCACGTGTTGAT | 0.21
119 | CGGTCCACGTGTTGTG | -0.06
120 | TTTCGCACGTGATCGG | 0
121 | GGAGGCACGTGTAATT | 0.02
122 | TTTTGCACGTGCAGCT | -0.05
123 | GGTCGCACGTGTGTAT | 0.09
124 | TGGGTCACGTGGCGTG | 0.12
125 | ACGTTCACGTGGATTG | 0.22

Row | Sequence | relative binding free energy [kcal/mol]
126 | ACATGCACGTGGGAGA | 0.04
127 | TTTATCACGTGTCGGT | 0.25
128 | AGTACCACGTGGGTTG | -0.23
129 | GTTAACACGTGGTCGT | -0.1
130 | GTATCCACGTGTTGGT | 0.04
131 | TGAGTCACGTGATTCG | 0.26
132 | AGTACCACGTGATGGG | -0.01
133 | TCTTGCACGTGAGGGC | 0.19
134 | ATCGTCACGTGTTTAT | 0.04
135 | GAGTTCACGTGTTGCA | 0.25
136 | GAGTTCACGTGTAAAT | 0.49
137 | TGGATCACGTGGCTTG | -0.11
138 | CGTTACACGTGAGTGG | 0.26
139 | TTTGTCACGTGTTTCT | 0.15
140 | GTGGGCACGTGAAATA | 0.17
141 | AGATGCACGTGAGGAT | 0.12
142 | GTAGTCACGTGTTGCG | 0.27
143 | TTATTCACGTGAAGAG | 0.23
144 | TTCTCCACGTGTTGGT | -0.09
145 | GTAGACACGTGATTTG | 0.06
146 | GTTAGCACGTGCTCGG | -0.1
